The results in this text go back to article PMC3040668.

Amino acid sequences for entries named in this document (tags omitted).
UniProt Q07812: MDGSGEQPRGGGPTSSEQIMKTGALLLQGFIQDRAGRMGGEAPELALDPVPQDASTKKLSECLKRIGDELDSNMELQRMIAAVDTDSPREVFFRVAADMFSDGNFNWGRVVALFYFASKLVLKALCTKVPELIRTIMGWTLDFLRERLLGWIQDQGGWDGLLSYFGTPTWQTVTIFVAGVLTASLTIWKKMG

For assay [1], the target named is T1, Rubella virus capsid protein (in cells infected with the M33 strain) (Rubella virus (M33 strain)) (UniProt P08563).
T1 sequence: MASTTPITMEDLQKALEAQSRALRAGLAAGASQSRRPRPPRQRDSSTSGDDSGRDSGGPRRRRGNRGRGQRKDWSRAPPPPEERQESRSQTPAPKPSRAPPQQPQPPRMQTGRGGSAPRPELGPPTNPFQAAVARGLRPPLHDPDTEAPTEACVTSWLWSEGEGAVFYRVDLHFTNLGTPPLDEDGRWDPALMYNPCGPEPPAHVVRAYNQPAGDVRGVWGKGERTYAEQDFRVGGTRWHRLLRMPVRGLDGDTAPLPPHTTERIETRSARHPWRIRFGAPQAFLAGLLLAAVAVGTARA
Kind of assay: co-IP; lysates of A549 cells infected with RV (M33), staurosporine for 0 to 6 h from 42 h; IP with antibodies to capsid, Bax or Bak overnight at 4°C, immunoblot; lysis in 1% CHAPS or 1% NP-40 buffer with 150 mM NaCl. Background: In western blotting, separated proteins are transferred to a membrane and probed.

For assay [2], the target named is Bax (human (endogenous in A549)) (UniProt Q07812). Kind of assay: co-IP; lysates of A549 cells transiently expressing capsid constructs; IP with rabbit anti-Bax under non-denaturing conditions, immunoblot with goat anti-RV and mouse anti-Bax.

These are yes or no findings as the source states them, for the method shown. Binding seen in cells or lysates may run through a third protein. Some results given as binding are weak or reduced against the parent protein; the word gives no strength.

In the case of Bax (from UniProt Q07812 1-192), the binding result in assay [1] is recorded as “binds”.

Turning to “CapNT (amino acid residues 1-152 of Rubella virus capsid) (from UniProt P08563 1-152) (domain or fragment)”, the binding result in assay [2] is on record as “no binding”.

With “CapΔRSP (amino acid residues 1-267 of Rubella virus capsid) (from UniProt P08563 1-267) (domain or fragment)”, the binding entry in assay [2] is “no binding”.
